Source: PubChem BioAssay AID1159614 (National Center for Advancing Translational Sciences (NCATS), 2016)
The campaign covered roughly 45,000 compounds. About 65 (0.1%) were called active. Calls come from the whole dose curve; as a rule, active = well fitted activation curve with a large enough effect; inconclusive = small, poorly fitted or top-dose-only effect; inactive = no such curve, though single readings can be large or run the other way. The list shows a part of the results.

molecular target: Galactocerebrosidase (Homo sapiens) (UniProt P54803); assay: A Novel Cell-Based Assay to Identify Small Molecules for B -Galactocerebrosidase; settings: 145M-Twi-hGALC-G270D cells (Twitcher mouse brain line with human GALC G270D), HMU-beta-Gal fluorescence, 48 h; series mostly up to 57.5 µM; activation: at the top concentration; note: 0% is about no effect; nearly all actives have a fitted effect of over 65% in size
Chain of UniProt P54803 (P54803 whole entry, looked up): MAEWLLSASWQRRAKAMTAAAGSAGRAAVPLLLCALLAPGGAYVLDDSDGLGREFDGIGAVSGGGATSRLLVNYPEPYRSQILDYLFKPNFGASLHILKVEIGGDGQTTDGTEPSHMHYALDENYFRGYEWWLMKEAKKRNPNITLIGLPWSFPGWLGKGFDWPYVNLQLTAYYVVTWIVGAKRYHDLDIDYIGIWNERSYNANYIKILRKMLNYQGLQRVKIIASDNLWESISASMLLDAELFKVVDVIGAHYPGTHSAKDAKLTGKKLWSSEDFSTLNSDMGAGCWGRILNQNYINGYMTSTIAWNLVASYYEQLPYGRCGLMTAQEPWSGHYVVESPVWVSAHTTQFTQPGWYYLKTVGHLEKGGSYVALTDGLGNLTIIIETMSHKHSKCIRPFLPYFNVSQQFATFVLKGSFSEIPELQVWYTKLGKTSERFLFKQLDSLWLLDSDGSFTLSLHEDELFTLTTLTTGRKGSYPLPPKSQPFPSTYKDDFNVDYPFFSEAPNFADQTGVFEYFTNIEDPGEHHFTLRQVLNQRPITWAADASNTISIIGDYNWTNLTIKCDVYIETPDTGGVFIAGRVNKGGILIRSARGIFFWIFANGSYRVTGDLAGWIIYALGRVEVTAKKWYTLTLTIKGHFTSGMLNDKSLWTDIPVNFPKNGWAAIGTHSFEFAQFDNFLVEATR
Summary of the method: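 Mutant human GALC (G270D), stably expressed in a Twitcher mouse brain cell line lacking endogenous GALC, is measured in live-treated cells via 6-hexadecanoylamino-4-methylumbelliferyl-β-galactoside hydrolysis (0.1 mM final, pH 5.2) with fluorescent detection.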

| Compound | activation |
| --- | --- |
| COc1ccc(CCNC(=O)c2cc3c(=O)n4ccccc4nc3n2C)cc1 | inactive: -6.28% |
| CC(=O)OCC(CCn1cnc2cnc(N)nc21)COC(C)=O | inactive: -8.6% |
| C[C@H](CN1CCCC1)C(=O)c1ccc(C(F)(F)F)cc1 | inactive: -11.8% |
| COc1cccc(N2CCN(C(=O)c3ccc4c(Cl)c5c(nc4c3)CCCC5)CC2)c1 | inactive: -36.1% |
| CCc1ccc(NC(=O)CSC2=Nc3ccccc3C3=NC(CC(=O)NCc4cccs4)C(=O)N23)cc1 (configuration not stated) | inactive: -9.94% |
| Cc1cc2c(cc3c(SCc4cccc(Cl)c4)nnc(C)n32)o1 | inactive: -12.7% |
| CCC(Cn1nnc2ccccc2c1=O)NC(=O)Nc1cc(OC)cc(OC)c1 (configuration not stated) | inactive: -12.6% |
| CCC(=O)N1CCc2cc(Br)cc(S(=O)(=O)N3CCC(C(=O)Nc4cccc(C)c4)CC3)c21 | inactive: -22.7% |
| COc1ccc(NC(=O)Cn2cc(S(=O)(=O)c3ccccc3)c(=O)c3cc(C)ccc32)cc1Cl | inactive: 3.95% |
| Cc1cc(N2CCN(C)CC2)nc2ccc(NC(=O)c3ccccc3F)cc12 | inactive: -24.7% |
| CC(=O)Nc1ccc(S(=O)(=O)N2CCN(c3ccc(C)c(C)c3)CC2)cc1 | inactive: -8.13% |
| CNC(=O)c1cccc(-n2c(C)nc3cccnc32)c1C | inactive: -11.2% |
| O=c1c2cccnc2n(Cc2ccc(Cl)cc2)c(=O)n1Cc1ccc(F)cc1 | inactive: -15.7% |
| CCCSc1nnc(NC(=O)Cc2coc3cc(C)ccc23)s1 | inactive: -10.8% |
| CC(=O)c1ccc(NC(=O)CSc2nc3c(=O)n(C)c(=O)n(C)c3n2C)cc1 | inactive: -7.19% |
| Cc1cc(OCC(=O)Nc2ccc(C(=O)OC3CCCCC3)cc2)ccc1Cl | inactive: -8.9% |
| O=C(CSc1nnc2[nH]c(=O)cc(-c3ccccc3)n12)Nc1ccccc1C(F)(F)F | inactive: -7.01% |
| Cc1cccc(NC(=O)Nc2ccc(C)c(C)c2)n1 | inactive: -20% |
| COc1ccc(OC)c(NC(=O)C2CCN(S(=O)(=O)c3c(C)noc3/C=C/c3ccc(C)cc3)CC2)c1 | inactive: -17.8% |
| CCC(C)n1c(=N)c(C(=O)NCc2ccco2)cc2c(=O)n3cc(C)ccc3nc21 (configuration not stated) | inactive: -14.4% |
| CC1CCCCN1CCCNC(=O)c1sc2ncccc2c1-n1cccc1 (configuration not stated) | inactive: -17.2% |
| CNC(=O)C1CCC(Cn2c(=O)c3sccc3n(CC(=O)Nc3cc(C)cc(C)c3)c2=O)CC1 (configuration not stated) | inactive: -7.9% |
| COc1cccc(NC(=O)Cn2nc(-c3ccncc3)ccc2=O)c1 | inactive: -11.8% |
| CCOc1ccc(NC(=O)C(=O)NCCc2sc(-c3ccc(C)cc3)nc2C)cc1 | inactive: -36.4% |
| CC(C)c1ccc(C(=O)CC2(O)C(=O)N(CCc3ccccc3)c3ccc(Cl)cc32)cc1 (configuration not stated) | inactive: -3.73% |

| Compound | activation |
| --- | --- |
| O=C(c1c[nH]c2ccc(S(=O)(=O)Nc3ccccc3F)cc2c1=O)N1CCCCCC1 | inactive: -5.32% |
| O=C(c1cnn(-c2ccc(F)cc2)c1-n1cccc1)N1CCN(c2cccc(Cl)c2)CC1 | inactive: -44.1% |
| COc1ccc(CN2CCc3nc(N4CCN(c5ccc(F)cc5)CC4)ncc3C2)c(OC)c1OC | inactive: -7.58% |
| CCOCCCNC(=O)C1CCN(c2nc3ccc(Cl)cc3[nH]2)CC1 | inactive: -14.9% |
| Cc1cccc(Cn2c(CN3CCC(C(=O)NCc4ccccc4Cl)CC3)cc3ccccc32)c1 | inactive: -43.6% |
| Cc1ccc(C(=O)Nc2cc(-c3nc4cc(Cl)ccc4o3)ccc2C)c(C)c1 | inactive: -18.2% |
| COc1ccc(Cn2c(CNS(=O)(=O)c3ccc(Cl)s3)nc3cccnc32)cc1 | inactive: -8.58% |
| O=S(=O)(NCc1csc(-c2ccccc2)n1)c1ccccc1 | inactive: -7.59% |
| COC(=O)c1sc(N2C(=O)c3oc4cc(C)c(C)cc4c(=O)c3C2c2ccccc2F)nc1C (configuration not stated) | inactive: -3.85% |
| CCCN1C(=O)c2[nH]nc(-c3ccc(OC)cc3)c2C1c1ccccn1 (configuration not stated) | inactive: -17.1% |
| COc1ccc(Cl)cc1C(=O)NCC(c1ccc(N(C)C)cc1)N1CCCC1 (configuration not stated) | inactive: -19% |
| CN1CCN(c2c(F)cc3c(=O)c(C(=O)O)cn(CCF)c3c2F)CC1 | inactive: -10.5% |
| Cc1ccc(C)c(NC(=O)Cn2c(=O)n(CCCS(=O)(=O)C3CCCCC3)c(=O)c3ccccc32)c1 | inactive: 2.76% |
| Cc1ccc(NC(=O)C2CCCN(S(=O)(=O)c3ccc4c(c3)CCCC(=O)N4)C2)cc1N(C)C (configuration not stated) | inactive: -6.13% |
| O=C(Cn1c(-c2cccs2)cc2cc(Cl)ccc21)N1CCCCC1 | inactive: -3.22% |
| C[N+](C)(C)CC[N+]1(C)Cc2c(Cl)c(Cl)c(Cl)c(Cl)c2C1 | inactive: -13.4% |
| Cc1ccc(-c2ccc(CCC(=O)O)n2-c2ccc(C)c(Cl)c2)cc1 | inactive: -19.1% |
| O=C1CN(C(=O)c2c(F)cccc2Cl)C(c2ccc(F)cc2)c2cc(Br)ccc2N1 (configuration not stated) | inactive: -2.72% |
| Cn1c(=O)n(C)c2cc(N3CCOCC3)c(NS(=O)(=O)c3ccc(F)cc3)cc21 | inactive: -11.3% |
| Cc1ccc2nc(/C(C#N)=C/c3ccc(-c4ccc(C(=O)OC(C)C)cc4)o3)[nH]c2c1 | inactive: -6.11% |
| Cc1ccc2c(c1)c1c(c(=O)n(-c3ccccc3)c(=O)n1CC(=O)c1ccc(Cl)cc1)n2C | inactive: -11.9% |
| CCOc1cc(C(=O)Nc2ccc(-c3nnc4n3CCCCC4)cc2)cc(OCC)c1OCC | inactive: -9.14% |
| Fc1ccc(-c2nnn3c2nc(NCc2ccccc2)c2ccccc23)cc1 | inactive: -4.1% |
| CCc1ccc(CNC(=O)C2CCN(C(=O)c3ccc(-n4c(C)cc5ccccc54)s3)CC2)cc1 | inactive: -12.8% |
| COc1ccc(-n2c(=O)c3c4c(sc3n(CC(=O)C(C)(C)C)c2=O)CCCC4)c(OC)c1 | inactive: 7.42% |

| Compound | activation |
| --- | --- |
| COC(=O)c1cccc(CN2C(=O)SC(Nc3ccccc3C)C2=O)c1 (configuration not stated) | inactive: -2.36% |
| CN(C(=O)CSc1nc2ccc(NC(=O)c3cccs3)cc2s1)c1ccccc1 | inactive: 1.23% |
| CCOc1ccc(NC(=O)CSc2nccn2C2CCCC2)cc1 | inactive: -10.6% |
| O=C(Cn1nnc(-c2cccc(C(F)(F)F)c2)n1)NCc1ccc(F)cc1 | inactive: -8.8% |
| CCc1ccc(CNC(=O)c2cc3cc4ccc(OC)cc4nc3o2)cc1 | inactive: -19.6% |
| COc1ccc(C(=O)Nc2nc(-c3nnn(-c4cc(OC)ccc4OC)c3C)ns2)cc1 | inactive: -1.8% |
| Cc1ccc(OCc2cc(=O)n3c(-c4ccccc4)csc3n2)cc1 | inactive: 8.13% |
| COc1cc(NC(=O)Nc2c[nH]c(=O)[nH]c2=O)cc(OC)c1OC | inactive: -6.98% |
| CC(C)CCNC(=O)Cn1cc(S(=O)(=O)Cc2ccc(F)cc2)c2ccccc21 | inactive: -7.44% |
| CCN(CC)S(=O)(=O)c1ccc2c(c1)c(=O)c(C(=O)N1CCN(c3ccccc3OC)CC1)cn2C | inactive: -6.77% |
| COc1ccc(-c2cc(C(=O)NCc3ccc(C)cc3)c3cc(C(C)C)ccc3n2)cc1 | inactive: -4.67% |
| Cc1ccc(NC(=O)C(=O)NCC(c2ccc3c(c2)OCO3)N2CCN(C)CC2)cc1C (configuration not stated) | inactive: -11.7% |
| Cc1c(C(=O)Oc2ccc(Br)cc2)sc2ncn(Cc3ccccc3F)c(=O)c12 | inactive: -11.7% |
| CC(=O)N1c2ccc(S(=O)(=O)NCC3CCC(C(=O)Nc4cccc(C)c4)CC3)cc2CC1C (configuration not stated) | inactive: -3.65% |
| CCCC(=O)OC1=C(C(C)=O)N(Cc2ccccc2)S(=O)(=O)c2ccccc21 | inactive: -13.1% |
| Cc1cc(S(=O)(=O)NCCc2csc(-c3cccc(F)c3)n2)ccc1F | inactive: -21.7% |
| CCCCOc1ccc(S(=O)(=O)n2nc(C)c(S(=O)(=O)N3CCCCCC3)c2C)cc1 | inactive: -8.74% |
| O=C1CCSC2(C(=O)N(Cc3ccccc3)c3ccccc32)N1c1ccccc1 (configuration not stated) | inactive: 4.75% |
| O=C(NCCCN1CCN(c2ccccc2F)CC1)c1sc2ncccc2c1-n1cccc1 | inactive: -15.2% |
| COc1cccc2cc(-c3nc4ccc(C)cc4[nH]3)c(=O)oc12 | inactive: -9.92% |
| CCN(Cc1ccccc1)S(=O)(=O)c1ccc(N2CCCCS2(=O)=O)cc1 | inactive: -21.6% |
| CCc1ccc2nc(N3CCC(C(=O)NCCC(C)C)CC3)sc2c1 | inactive: -14.4% |
| CCCCNC(=O)c1cnc2c(-c3ccc(OCC)c(OCC)c3)c(C)nn2c1-c1ccccc1 | inactive: -15.5% |
| O=C(CCS(=O)(=O)c1cc2c(cc1Cl)NC(=O)CO2)NCc1ccccc1 | inactive: -9.41% |
| CC(CNC(=O)Cn1ncc2c3ccccc3n(Cc3cccc(Cl)c3)c2c1=O)c1ccccc1 (configuration not stated) | inactive: -6.94% |

| Compound | activation |
| --- | --- |
| COCCNC(=O)CSc1nc(-c2ccc(F)cc2)[nH]c1-c1ccc(Cl)cc1 | inactive: -17.7% |
| O=C(COc1ccccc1)Nc1ccc(OCc2cc(=O)n3ccsc3n2)cc1 | inactive: -11.5% |
| CCOc1ccc(C(=O)Nc2ccc(S(=O)(=O)N(Cc3ccccc3)c3ccccc3)cc2)cc1 | inactive: -18.2% |
| COc1ccc(OC)c(C2CC(=O)N(c3cccc(C)c3)C3=C2C(=O)OC3)c1 (configuration not stated) | inactive: -16.7% |
| Nc1nc(=S)c2[nH]cnc2[nH]1 | inactive: -7.29% |
| CCOC(=O)c1c(NC(=O)CSc2cn(CCNC(=O)c3ccc(OCC)cc3)c3ccccc23)sc2c1CCCC2 | inactive: 4.08% |
| Cc1cc(N2CCCCC2)nc2ccc(NC(=O)c3ccc(F)cc3)cc12 | inactive: 0.161% |
| Cc1cccc(CC(=O)NC2CC(=O)N(c3cccc(F)c3)C2)c1 (configuration not stated) | inactive: 4.58% |
| COc1ccc(OC)c(NC(=O)C2CCN(S(=O)(=O)c3ccc(C)cc3)CC2)c1 | inactive: -18.3% |
| CC(C)CCNC(=O)C(=O)Nc1c2c(nn1-c1ccccc1)CS(=O)(=O)C2 | inactive: -6.48% |
| O=C(CSc1nc2cc3ccccc3cc2[nH]1)Nc1cccc(C(F)(F)F)c1 | inactive: -4.79% |
| CNS(=O)(=O)c1cn(CC(=O)Nc2ccc(OC)c(Cl)c2)cc1S(=O)(=O)NC | inactive: -5.3% |
| COc1ccccc1N1CCN(S(=O)(=O)c2ccc(-c3cc(C(F)(F)F)on3)s2)CC1 | inactive: -8.53% |
| Cc1cc(F)ccc1Nc1nc2ccccc2n2nnnc12 | inactive: -18.9% |
| CN(C(=O)CSc1nc2ncccc2o1)c1ccc(F)cc1 | inactive: -16.3% |
| O=c1c2ccccc2n(Cc2cccc(Cl)c2)c(=O)n1CCc1ccccc1 | inactive: -5.65% |
| COc1ccc(-c2cc(C(C)=O)c(C)n2CCC(=O)Nc2cc(C)ccc2OC)cc1 | inactive: -7.17% |
| CC(=O)NCCc1nc2ccccc2n1CCCCOc1ccc(Cl)cc1 | inactive: -12.5% |
| CCN(c1ccccc1)c1nnc(NC(=O)Nc2cccc(C(F)(F)F)c2)s1 | inactive: -6.32% |
| CCOC(=O)c1cc(OC(=O)c2cccc(C)c2)n(-c2ccccc2)n1 | inactive: -13.3% |
| COCc1cc(C)nc2sc3c(c12)NC(c1ccc(NC(C)=O)cc1)N(c1ccc(C)cc1)C3=O (configuration not stated) | inactive: -8.76% |
| COc1cccc(CNc2ncnc3onc(-c4ccc(F)cc4)c23)c1 | inactive: 2.88% |
